In all, about 310,000 compounds went through this assay and about 14,000 (4.5%) showed an effect of 50% or more. The effect is printed as a negative number. This is one part of the list.
molecular target: human ether-à-go-go-related gene (hERG) potassium channel (human, UniProt Q12809); test: primary screen, population patch clamp on CHO cells stably expressing hERG
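Note: peak tail current of the secondary pulse compared with the same well before compound.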

human ether-à-go-go-related gene (hERG) potassium channel, sequence (Q12809 whole entry, looked up): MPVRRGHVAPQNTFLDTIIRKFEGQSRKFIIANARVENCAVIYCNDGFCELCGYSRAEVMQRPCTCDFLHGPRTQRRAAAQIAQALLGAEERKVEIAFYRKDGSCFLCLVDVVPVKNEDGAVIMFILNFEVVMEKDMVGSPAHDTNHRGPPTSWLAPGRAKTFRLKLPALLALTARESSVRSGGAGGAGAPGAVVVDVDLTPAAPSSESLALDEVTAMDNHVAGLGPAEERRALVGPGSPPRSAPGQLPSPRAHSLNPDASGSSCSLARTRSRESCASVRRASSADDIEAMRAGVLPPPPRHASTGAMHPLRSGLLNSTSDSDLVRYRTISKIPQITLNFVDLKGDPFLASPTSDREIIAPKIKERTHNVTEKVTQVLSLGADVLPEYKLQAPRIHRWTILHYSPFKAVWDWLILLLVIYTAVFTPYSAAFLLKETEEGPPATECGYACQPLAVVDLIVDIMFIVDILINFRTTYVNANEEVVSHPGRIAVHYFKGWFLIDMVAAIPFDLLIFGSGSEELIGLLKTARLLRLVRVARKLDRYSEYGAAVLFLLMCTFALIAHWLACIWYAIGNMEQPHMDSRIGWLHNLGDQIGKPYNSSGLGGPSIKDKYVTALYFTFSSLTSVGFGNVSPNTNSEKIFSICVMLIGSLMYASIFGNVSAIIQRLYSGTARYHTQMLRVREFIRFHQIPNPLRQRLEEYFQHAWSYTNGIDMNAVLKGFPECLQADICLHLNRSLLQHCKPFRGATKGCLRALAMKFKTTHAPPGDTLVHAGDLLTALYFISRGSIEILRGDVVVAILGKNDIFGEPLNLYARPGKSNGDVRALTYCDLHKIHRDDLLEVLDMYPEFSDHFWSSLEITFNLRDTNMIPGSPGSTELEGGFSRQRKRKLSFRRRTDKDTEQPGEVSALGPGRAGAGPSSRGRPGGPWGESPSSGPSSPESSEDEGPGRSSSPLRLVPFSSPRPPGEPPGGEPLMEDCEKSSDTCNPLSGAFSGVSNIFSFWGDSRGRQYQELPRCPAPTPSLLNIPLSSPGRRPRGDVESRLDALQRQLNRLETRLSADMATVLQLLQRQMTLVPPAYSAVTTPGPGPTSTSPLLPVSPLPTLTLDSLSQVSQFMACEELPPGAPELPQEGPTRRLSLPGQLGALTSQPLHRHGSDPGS

Row | SMILES | hERG current change (%, negative = inhibition) at 10uM [%]
1 | CCc1cc2c3c(c1)/C(=C1/SC(N)=NC1=O)C(=O)N3C(C)(C)C=C2C | 14.1
2 | O=C(COC(=O)/C=C/C(=O)N1CCN(c2ccccc2)CC1)NCc1ccc(F)cc1 | -8.17
3 | CCOC(=O)c1nn(-c2ccc(Cl)cc2)c(C)cc1=O | -0.00902
4 | CCCCC(=O)Nc1cccc(-c2ccc3nncn3n2)c1 | -13.8
5 | S=P(NC1CCCCC1)(N1CC1)N1CC1 | 18.8
6 | CC(=O)Nc1ccc(NC(=O)C(C)OC(=O)c2cc(S(=O)(=O)N3CCOCC3)ccc2Cl)cc1 (stereo not drawn) | 7.99
7 | CN1C(=O)C(CC(=O)Nc2ccc(F)cc2)N(Cc2cccs2)C1=S (stereo not drawn) | -17.7
8 | CCCCn1nc(C(=O)NCC(=O)Nc2c(C)cccc2C)c2ccccc2c1=O | -68.9
9 | CS(=O)(=O)c1ccc(C(=O)NC2CCCc3ccccc32)cc1 (stereo not drawn) | 20
10 | CCOc1ccc2[nH]c(=S)[nH]c2c1 | 18.5
11 | COc1cc(CCC(=O)Nc2ccc(C)c(S(=O)(=O)N(C)C)c2)cc(OC)c1OC | 0.188
12 | COC(=O)c1ccc(NC(=O)N(c2ccccc2)c2ccccc2)cc1 | 15.2
13 | CCN(CC)C(=O)Cn1cc(S(=O)(=O)CC(=O)NCCc2ccc(OC)c(OC)c2)c2ccccc21 | 9.07
14 | Cn1nc(CC(=O)Nc2cccc3ncccc23)c2ccccc2c1=O | -19.7
15 | CC(=O)NC(CCCN1C(=O)c2ccccc2C1=O)c1nnn(C)n1 (stereo not drawn) | 3.04
16 | O=C(C1=C[C@H](C2CCCCC2)C[C@H](OCCCCO)O1)N1CCN(Cc2ccccc2)CC1 | -46.4
17 | Nn1c(SCC(=O)Nc2ccc(OC(F)F)cc2)nnc1-c1ccco1 | -23.1
18 | CNc1cc(N2CCN(C)CC2)ccc1[N+](=O)[O-] | -10.5
19 | COc1ccccc1-n1cnnc1SCC(=O)NC1CCCC1 | -5.37
20 | COc1ccc(-n2c(SCC(=O)Nc3nccs3)nc3c(c2=O)SC(C)C3)cc1 (stereo not drawn) | -13.5
21 | COc1ccc(OC)c(N=c2ssnc2Cl)c1 | -11.3
22 | CCOc1ccc(-n2c(SCC(=O)Nc3nccs3)nc3c(c2=O)SCC3)cc1 | -5.18

Row | SMILES | hERG current change (%, negative = inhibition) at 10uM [%]
23 | O=C(c1ccc(Cl)c(F)c1F)N1CCCC1 | 7.66
24 | CC(C)(C=O)C1=CC(=O)c2ccccc2C1=O | -5.06
25 | COc1ccc(N(C(=O)c2ccco2)C(C(=O)NC2CCCCC2)c2ccccc2)cc1 (stereo not drawn) | 10.9
26 | O=C(CN(c1ccccc1Cl)S(=O)(=O)c1ccccc1)N/N=C/c1ccccc1C(=O)O | 28.6
27 | Cc1noc(/C=C/c2ccco2)c1S(=O)(=O)N1CCC(C(=O)N(C)Cc2ccccc2)CC1 | -4.68
28 | Cc1nc2ccc(NC(=O)c3ccco3)cc2s1 | 6.49
29 | CC1CCCCN1C(=O)COc1ccc(S(=O)(=O)N2CCCC2)cc1[N+](=O)[O-] (stereo not drawn) | -16.8
30 | CN1CCN(C(c2cccs2)c2nnnn2Cc2ccc(F)cc2)CC1.Cl (stereo not drawn) | -13.1
31 | O=C(C1CCN(S(=O)(=O)c2cccc3nsnc23)CC1)N1CCn2c1nc1ccccc12 | -25.6
32 | NC(=O)C1CCN(c2nc(-c3ccc(F)cc3)cs2)CC1 | 3.46
33 | CCN(CC(=O)NCc1ccc(Cl)cc1)C(=O)COc1ccc(C)cc1C | -78.4
34 | CC(=O)Nc1ccc(C(=O)CN2C(=O)NC3(CCOc4ccccc43)C2=O)c(F)c1 (stereo not drawn) | -20.5
35 | C=CCNc1nc(C(=O)OCC(=O)NCc2cccc(Cl)c2)cs1 | -7.11
36 | O=C(NCCS(=O)(=O)N1CCN(c2ccccc2)CC1)c1ccc(Br)o1 | -5.85
37 | Cc1ccccc1OCC(=O)NNC(=O)c1cc(S(=O)(=O)N(C)C)ccc1N1CCCC1 | 0.0569
38 | Cc1cc(C)nc(SCc2cccc(C(=O)O)c2)n1 | 8.4
39 | N#C/C(=C\c1ccc(OCc2cccc(C(=O)O)c2)cc1)C(=O)NCc1ccco1 | 13.2
40 | CC(=O)c1ccc(NC(=O)CSCC(=O)Nc2ccc3ccccc3c2)cc1 | 12
41 | Cn1c(=O)c2c(SCC(N)=O)nc(CC(C)(C)C)nc2n(C)c1=O | -10.5
42 | CCc1nnc(NC(=O)C2CCCN(S(=O)(=O)c3ccc(OC)cc3)C2)s1 (stereo not drawn) | 7.4
43 | O=C(NNCc1ccc(O)cc1)c1ccccc1Cl | 5.16
44 | CCCNC(=O)CSc1nnc(-c2ccco2)n1C | -2.38

Row | SMILES | hERG current change (%, negative = inhibition) at 10uM [%]
45 | O=C(NCc1ccco1)c1cc2c(s1)CCCCC2 | -8.23
46 | Cc1ccc(OCC(=O)NS(=O)(=O)c2ccc(Cl)cc2)cc1 | 17.9
47 | CCOC(=O)C(NC(=O)CC)(Nc1sc(C)c(CC)c1C#N)C(F)(F)F (stereo not drawn) | -16.8
48 | CC(NCc1ccc(F)cc1)C(=O)Nc1cc(S(=O)(=O)N2CCCCC2)ccc1Cl (stereo not drawn) | -15.9
49 | Cc1cccc(NC(=O)c2cc(NC(=O)C3CCCCC3C(=O)O)ccc2N2CCCCC2)c1 (stereo not drawn) | -22.5
50 | COc1ccc2c(CC(=O)N[C@@H](Cc3ccccc3)C(=O)O)cc(=O)oc2c1 | 1.26
51 | O=C(N1CCN(c2ccccc2)CC1)C1(S(=O)(=O)c2ccc(Cl)cc2)CC1 | -42.1
52 | O=C(NCc1ccco1)c1ccc(C(=O)NCc2ccco2)s1 | 4.05
53 | CCCn1c(=O)[nH]c(=O)c2c1nc(-c1ccc(C#N)cc1)n2CCOC | -2.78
54 | COc1cccc(C(=O)Nc2cc(=O)n(C)c(=O)n2C)c1OC | 13.1
55 | Cc1cc(C)c(OCC(=O)NCC2COc3ccccc3O2)c(C)c1 (stereo not drawn) | -13.9
56 | CC(C)CC(C(=O)Nn1cnnc1)N1C(=O)c2ccccc2C1=O (stereo not drawn) | 3.91
57 | NC(=O)c1ccccc1NC(=O)CN1CCN(Cc2ccccc2)CC1 | -78.3
58 | CNC(=O)c1cnc(-c2ccccc2)nc1-c1ccccc1 | 9.63
59 | O=S(=O)(c1ccccc1)[C@@]1(c2ccc(Br)cc2)C[C@@H]2ON=C(c3cccc(Br)c3)[C@@H]2C1 | -12
60 | O=C(NC1CC1)C1CC(=O)N(c2cccc(Cl)c2Cl)C1 (stereo not drawn) | 16.8
61 | CCCc1nc(SCC(=O)NC2CC2)c2c(C)c(C)sc2n1 | -26.2
62 | CCOC(=O)C(=CNc1ccc2c(c1)nnn2-c1ccc(Cl)cc1)C(=O)OCC | -5.02
63 | COc1cc(C(=O)ON=C2C=C(C)C(=O)C(C)=C2)cc(OC)c1OC | -6.3
64 | Cc1ccc2nsnc2c1N | -0.661
65 | CC(CN1CCN(Cc2ccccc2)CC1)OC(=O)c1ccco1.Cl (stereo not drawn) | -24.1
66 | c1ccc(-c2csc3nnc(SCc4ccc5c(c4)OCO5)n23)cc1 | -71.4

Row | SMILES | hERG current change (%, negative = inhibition) at 10uM [%]
67 | CCCCCOC(=O)c1[nH]c2c(c1C)C(=O)C(C(=O)OC)C(C)C2 (stereo not drawn) | 9.31
68 | Cc1ccccc1Cn1nc(C)c(NC(=O)C2c3ccccc3Oc3ccccc32)c1C | 1.65
69 | CCN1C(=O)C(CC(=O)Nc2ccc(OC)cc2)N(CCc2ccccc2F)C1=S (stereo not drawn) | -24.2
70 | CC(=O)/C(=N/Nc1ccccc1[N+](=O)[O-])N1CCCc2ccccc21 | 3.36
71 | Cc1nc2cc(C)c(C)cc2s1 | 15.7
72 | C=CCOc1ccccc1CN(CCc1ccccc1)C(=O)c1cccc(S(C)(=O)=O)c1 | -26.3
73 | CC12CCC(=O)N1C(C(=O)OCC(=O)Nc1sccc1C#N)CS2 (stereo not drawn) | 12.7
74 | Cc1[nH]c(=O)[nH]c(=O)c1S(=O)(=O)N1CCOCC1 | 3.26
75 | Nc1nnc(N2CCCCCC2)s1 | -28.4
76 | O=C(Nc1ccccc1Br)c1ccc(OC(=S)N2CCOCC2)cc1 | 25.6
77 | COC(=O)c1ccc(C(=O)OC)c(NC(=O)C(C)(C)C)c1 | 20.7
78 | Cc1cc(C)c2c(-n3cccc3)c(C(=O)NNS(=O)(=O)c3ccc(Br)cc3)sc2n1 | -24.3
79 | NC(=O)c1c(NC(=O)CN2C(=O)CCC2=O)sc2c1CCCCC2 | 7.57
80 | Cn1c(=O)n(C)c2cc([N+](=O)[O-])c(N3CCN(C(=O)c4cccc(Cl)c4)CC3)cc21 | -64.2
81 | CCOCCOC(=O)C1=C(C)N(C)C(=O)NC1c1cc(Cl)c(O)c(OC)c1 (stereo not drawn) | 8.63
82 | COc1ccc(CNC(=O)c2ccc(N3CCC4(CC3)CC(c3ccc(Cl)cc3)=NO4)c(N)c2)cc1 | 6.61
83 | CCC(C(=O)N1CCN(S(=O)(=O)c2sc(C(=O)O)c(C)c2C(=O)O)CC1)c1ccccc1 (stereo not drawn) | 20.2
84 | CC1CCCC(C)N1C(=O)c1cc2ncc(CCCl)cn2n1 (stereo not drawn) | 10.7
85 | Cc1ccc(O)c(NC(=O)C2CC(c3c(F)cccc3Cl)=NO2)c1 (stereo not drawn) | 3.65
86 | CCN(CC)CCN(Cc1cc2cc3c(cc2[nH]c1=O)OCCO3)C(=S)NC | -23.2
87 | Cc1cc[n+](CC(=O)c2cccc([N+](=O)[O-])c2)c2ccccc12.[Br-] | -58.8

Source: PMC4336329 (PLoS ONE, 2015)
